# Experimental data published in the antibiotic and cytotoxicity screens of Wong et al. (2023).
# The list shows a part of the results.
# Tested on: HepG2
# Test: cytotoxicity call (relative viability < 0.9)
# Settings: 10 µM
row,SMILES,cytotoxicity call
1,CO[C@H]1CN(C)C(=O)c2cc(NS(C)(=O)=O)ccc2OC[C@@H](C)N(C(=O)CN(C)C)C[C@@H]1C,inactive
2,COc1ccc(NC(=O)N(C)C[C@@H]2Oc3c(NS(=O)(=O)c4cn(C)cn4)cccc3C(=O)N([C@H](C)CO)C[C@H]2C)cc1,inactive
3,CC(C)NC(=O)Nc1ccc2c(c1)C(=O)N([C@H](C)CO)C[C@@H](C)[C@@H](CN(C)S(=O)(=O)c1cn(C)cn1)OCCCC[C@H](C)O2,inactive
4,CCO[C@@H]1OC(C(=O)N2CCN(Cc3ccccc3)CC2)=C[C@H](C)[C@H]1CCCOC(=O)NCCCCCC(=O)NO,inactive
5,C[C@@H]1CCCCO[C@H](CN(C)Cc2ccc(C(F)(F)F)cc2)[C@H](C)CN([C@@H](C)CO)C(=O)c2cc(NC(=O)NC3CCCCC3)ccc2O1,active
6,CN(C)CCCNC(=O)C[C@H]1CC[C@@H]2[C@H](COc3ccc(NS(C)(=O)=O)cc3C(=O)N2C)O1,inactive
7,COc1ccc(NC(=O)Nc2ccc3c(c2)CC(=O)N([C@@H](C)CO)C[C@@H](C)[C@@H](CN(C)Cc2ccc(-c4ccccc4)cc2)O3)cc1,active
8,C[C@@H]1CN([C@H](C)CO)C(=O)Cc2cc(NC(=O)CCC(F)(F)F)ccc2O[C@H]1CN(C)C(=O)Nc1cccc2ccccc12,inactive
9,COc1ccc(S(=O)(=O)Nc2ccc3c(c2)CC(=O)N([C@H](C)CO)C[C@@H](C)[C@@H](CN(C)C(=O)NC(C)C)O3)cc1,inactive
10,COc1ccc(S(=O)(=O)N(C)C[C@H]2Oc3ncc(-c4ccncc4)cc3C(=O)N([C@H](C)CO)C[C@@H]2C)cc1,inactive
11,C[C@@H]1CCCCO[C@@H](CN(C)S(C)(=O)=O)[C@@H](C)CN([C@H](C)CO)C(=O)c2cc(N(C)C)ccc2O1,inactive
12,CO[C@H]1CN(C)C(=O)c2ccc(NC(=O)C3CCOCC3)cc2OC[C@H](C)N(Cc2cccnc2)C[C@H]1C,inactive
13,C[C@@H]1COC(=O)[C@H](Cc2ccc(F)cc2)CC=CC[C@@H](CC(=O)N[C@@H](CO)Cc2ccccc2)C(=O)N1,inactive
14,Cc1noc(C)c1S(=O)(=O)N(C)C[C@@H]1Oc2ccc(NC(=O)NC3CCCCC3)cc2CC(=O)N([C@H](C)CO)C[C@H]1C,inactive
15,C[C@@H]1CN([C@H](C)CO)C(=O)c2cc(NS(=O)(=O)c3ccccc3)ccc2O[C@@H](C)CCCCO[C@H]1CN(C)C(=O)NC1CCCCC1,inactive
16,Cc1noc(C)c1NC(=O)N(C)C[C@H]1OCCCC[C@H](C)Oc2ccc(NS(=O)(=O)c3cccs3)cc2C(=O)N([C@@H](C)CO)C[C@@H]1C,inactive
17,C=CCSc1n[nH]c(=O)[nH]c1=O,inactive
18,C[C@@H]1CCCCO[C@H](CN(C)S(C)(=O)=O)[C@H](C)CN([C@H](C)CO)C(=O)c2cc(N(C)C)ccc2O1,inactive
19,C[C@H](CO)N1C[C@H](C)[C@H](CN(C)Cc2cccc(C(F)(F)F)c2)Oc2ncc(-c3ccccc3)cc2C1=O,inactive
20,C=C1C(=O)O[C@@H]2/C=C(\CO[C@@H]3O[C@H](CO)[C@@H](O)[C@H](O)[C@H]3O)CC/C=C3\C[C@H](OC3=O)[C@@H]12,inactive
21,C[C@H](CO)N1C[C@H](C)[C@H](CN(C)C(=O)Nc2ccc3c(c2)OCO3)Oc2ccc(NC(=O)C3CC3)cc2CC1=O,inactive
22,C[C@H]1CCCCO[C@@H](CN(C)CC2CCCCC2)[C@@H](C)CN([C@@H](C)CO)C(=O)c2cc(NC(=O)NC3CCCCC3)ccc2O1,inactive
23,C[C@@H]1CN([C@@H](C)CO)S(=O)(=O)c2ccc(C#CC3CC3)cc2O[C@H]1CN(C)Cc1cccc(F)c1,inactive
24,C[C@@H]1CN([C@@H](C)CO)C(=O)c2cc(C#CCN(C)C)cnc2O[C@@H]1CN(C)C(=O)c1ccc2c(c1)OCO2,inactive
25,COc1ccc(CN(C)C[C@@H]2OCCCC[C@H](C)Oc3ccc(NS(=O)(=O)c4ccc(OC)cc4)cc3C(=O)N([C@H](C)CO)C[C@H]2C)cc1,inactive
26,C[C@H]1CN([C@@H](C)CO)C(=O)c2cc(NC(=O)CCCCCC(=O)Nc3ccccc3N)ccc2O[C@@H]1CN(C)C(=O)Nc1ccc(F)cc1,inactive
27,C[C@H](CO)N1C[C@H](C)[C@@H](CN(C)C)OCCCC[C@H](C)Oc2ccc(NC(=O)CCCN(C)C)cc2C1=O,inactive
28,C[C@@H]1CN([C@H](C)CO)C(=O)Cc2cc(NS(C)(=O)=O)ccc2O[C@H]1CN(C)Cc1ccc(C(=O)O)cc1,inactive

# Tested on: S. aureus RN4220
# Test: growth inhibition call (relative growth <= 0.2)
# Settings: 50 µM
row,SMILES,growth inhibition call
1,C[C@@H]1CN([C@H](C)CO)C(=O)Cc2cc(NC(=O)C3CC3)ccc2O[C@H]1CN(C)Cc1ccc(Oc2ccccc2)cc1,inactive
2,O=C1C[C@]2(c3ccc([N+](=O)[O-])cc3)C(=O)N(CCN3CCOCC3)c3cc(CO)ccc3[C@H]2N1C1CCCCC1,inactive
3,Cc1noc(C)c1S(=O)(=O)Nc1ccc2c(c1)CC(=O)N([C@H](C)CO)C[C@H](C)[C@H](CN(C)Cc1ccccc1)O2,inactive
4,COc1ccc(NC(=O)N(C)C[C@H]2OCCCC[C@H](C)Oc3ccc(NC(=O)C4CCCCC4)cc3C(=O)N([C@H](C)CO)C[C@@H]2C)cc1,inactive
5,O=C(C[C@H]1C[C@H]2c3cc(NC(=O)Cc4ccncc4)ccc3O[C@H]2[C@H](CO)O1)NCc1cccc(F)c1,inactive
6,Cc1ccc(C(N)=O)cc1N,inactive
7,COc1ccc(NC(=O)Nc2ccc3c(c2)C(=O)N([C@H](C)CO)C[C@@H](C)[C@H](CN(C)Cc2ccc(C(F)(F)F)cc2)O3)cc1,inactive
8,NS(=O)(=O)c1cc2c(cc1Cl)N=C(CSCc1ccccc1)NS2(=O)=O,inactive
9,O=S(=O)(C1CCCCC1)C1CNC1,inactive
10,C[C@@H]1CN([C@@H](C)CO)C(=O)c2cc(NC(=O)c3ccccc3)ccc2O[C@@H](C)CCCCO[C@@H]1CN(C)Cc1ccc(C(=O)O)cc1,inactive
11,C[C@H](CO)N1C[C@H](C)[C@H](CN(C)S(=O)(=O)c2cn(C)cn2)OCc2cn(nn2)CCCC1=O,inactive
12,O=C(C[C@@H]1CC[C@@H]2[C@H](COC[C@H](O)CN2S(=O)(=O)c2ccccc2)O1)N[C@H]1CCN(Cc2ccccc2)C1,inactive
13,CO[C@H]1CN(C)C(=O)c2cc(NS(C)(=O)=O)ccc2OC[C@@H](C)N(C(=O)CN(C)C)C[C@@H]1C,inactive
14,COc1ccc(NC(=O)N(C)C[C@@H]2Oc3c(NS(=O)(=O)c4cn(C)cn4)cccc3C(=O)N([C@H](C)CO)C[C@H]2C)cc1,inactive
15,CC(C)NC(=O)Nc1ccc2c(c1)C(=O)N([C@H](C)CO)C[C@@H](C)[C@@H](CN(C)S(=O)(=O)c1cn(C)cn1)OCCCC[C@H](C)O2,inactive
16,CCO[C@@H]1OC(C(=O)N2CCN(Cc3ccccc3)CC2)=C[C@H](C)[C@H]1CCCOC(=O)NCCCCCC(=O)NO,inactive
17,C[C@@H]1CCCCO[C@H](CN(C)Cc2ccc(C(F)(F)F)cc2)[C@H](C)CN([C@@H](C)CO)C(=O)c2cc(NC(=O)NC3CCCCC3)ccc2O1,inactive
18,CN(C)CCCNC(=O)C[C@H]1CC[C@@H]2[C@H](COc3ccc(NS(C)(=O)=O)cc3C(=O)N2C)O1,inactive

row,SMILES,growth inhibition call
1,COc1ccc(NC(=O)Nc2ccc3c(c2)CC(=O)N([C@@H](C)CO)C[C@@H](C)[C@@H](CN(C)Cc2ccc(-c4ccccc4)cc2)O3)cc1,inactive
2,C[C@@H]1CN([C@H](C)CO)C(=O)Cc2cc(NC(=O)CCC(F)(F)F)ccc2O[C@H]1CN(C)C(=O)Nc1cccc2ccccc12,inactive
3,COc1ccc(S(=O)(=O)Nc2ccc3c(c2)CC(=O)N([C@H](C)CO)C[C@@H](C)[C@@H](CN(C)C(=O)NC(C)C)O3)cc1,inactive
4,COc1ccc(S(=O)(=O)N(C)C[C@H]2Oc3ncc(-c4ccncc4)cc3C(=O)N([C@H](C)CO)C[C@@H]2C)cc1,inactive
5,C[C@@H]1CCCCO[C@@H](CN(C)S(C)(=O)=O)[C@@H](C)CN([C@H](C)CO)C(=O)c2cc(N(C)C)ccc2O1,inactive
6,CO[C@H]1CN(C)C(=O)c2ccc(NC(=O)C3CCOCC3)cc2OC[C@H](C)N(Cc2cccnc2)C[C@H]1C,inactive
7,C[C@@H]1COC(=O)[C@H](Cc2ccc(F)cc2)CC=CC[C@@H](CC(=O)N[C@@H](CO)Cc2ccccc2)C(=O)N1,inactive
8,Cc1noc(C)c1S(=O)(=O)N(C)C[C@@H]1Oc2ccc(NC(=O)NC3CCCCC3)cc2CC(=O)N([C@H](C)CO)C[C@H]1C,inactive
9,C[C@@H]1CN([C@H](C)CO)C(=O)c2cc(NS(=O)(=O)c3ccccc3)ccc2O[C@@H](C)CCCCO[C@H]1CN(C)C(=O)NC1CCCCC1,inactive
10,Cc1noc(C)c1NC(=O)N(C)C[C@H]1OCCCC[C@H](C)Oc2ccc(NS(=O)(=O)c3cccs3)cc2C(=O)N([C@@H](C)CO)C[C@@H]1C,inactive
11,C=CCSc1n[nH]c(=O)[nH]c1=O,inactive
12,C[C@@H]1CCCCO[C@H](CN(C)S(C)(=O)=O)[C@H](C)CN([C@H](C)CO)C(=O)c2cc(N(C)C)ccc2O1,inactive
13,C[C@H](CO)N1C[C@H](C)[C@H](CN(C)Cc2cccc(C(F)(F)F)c2)Oc2ncc(-c3ccccc3)cc2C1=O,inactive
14,C=C1C(=O)O[C@@H]2/C=C(\CO[C@@H]3O[C@H](CO)[C@@H](O)[C@H](O)[C@H]3O)CC/C=C3\C[C@H](OC3=O)[C@@H]12,inactive
15,C[C@H](CO)N1C[C@H](C)[C@H](CN(C)C(=O)Nc2ccc3c(c2)OCO3)Oc2ccc(NC(=O)C3CC3)cc2CC1=O,inactive
16,C[C@H]1CCCCO[C@@H](CN(C)CC2CCCCC2)[C@@H](C)CN([C@@H](C)CO)C(=O)c2cc(NC(=O)NC3CCCCC3)ccc2O1,inactive
17,C[C@@H]1CN([C@@H](C)CO)S(=O)(=O)c2ccc(C#CC3CC3)cc2O[C@H]1CN(C)Cc1cccc(F)c1,inactive
